Results published in article PMC4274665.
Results are given in words; binding and its absence hold for the method and conditions named. In cells and extracts the contact can be indirect. Some binding calls cover weakened binding; strength is not graded here. Tags and fused reporters may be left off the sequences shown.

Amino acid sequences for entries named in this document (tags omitted). A change or cut given only in a name is not applied to a line headed by its entry.
UniProt P21513: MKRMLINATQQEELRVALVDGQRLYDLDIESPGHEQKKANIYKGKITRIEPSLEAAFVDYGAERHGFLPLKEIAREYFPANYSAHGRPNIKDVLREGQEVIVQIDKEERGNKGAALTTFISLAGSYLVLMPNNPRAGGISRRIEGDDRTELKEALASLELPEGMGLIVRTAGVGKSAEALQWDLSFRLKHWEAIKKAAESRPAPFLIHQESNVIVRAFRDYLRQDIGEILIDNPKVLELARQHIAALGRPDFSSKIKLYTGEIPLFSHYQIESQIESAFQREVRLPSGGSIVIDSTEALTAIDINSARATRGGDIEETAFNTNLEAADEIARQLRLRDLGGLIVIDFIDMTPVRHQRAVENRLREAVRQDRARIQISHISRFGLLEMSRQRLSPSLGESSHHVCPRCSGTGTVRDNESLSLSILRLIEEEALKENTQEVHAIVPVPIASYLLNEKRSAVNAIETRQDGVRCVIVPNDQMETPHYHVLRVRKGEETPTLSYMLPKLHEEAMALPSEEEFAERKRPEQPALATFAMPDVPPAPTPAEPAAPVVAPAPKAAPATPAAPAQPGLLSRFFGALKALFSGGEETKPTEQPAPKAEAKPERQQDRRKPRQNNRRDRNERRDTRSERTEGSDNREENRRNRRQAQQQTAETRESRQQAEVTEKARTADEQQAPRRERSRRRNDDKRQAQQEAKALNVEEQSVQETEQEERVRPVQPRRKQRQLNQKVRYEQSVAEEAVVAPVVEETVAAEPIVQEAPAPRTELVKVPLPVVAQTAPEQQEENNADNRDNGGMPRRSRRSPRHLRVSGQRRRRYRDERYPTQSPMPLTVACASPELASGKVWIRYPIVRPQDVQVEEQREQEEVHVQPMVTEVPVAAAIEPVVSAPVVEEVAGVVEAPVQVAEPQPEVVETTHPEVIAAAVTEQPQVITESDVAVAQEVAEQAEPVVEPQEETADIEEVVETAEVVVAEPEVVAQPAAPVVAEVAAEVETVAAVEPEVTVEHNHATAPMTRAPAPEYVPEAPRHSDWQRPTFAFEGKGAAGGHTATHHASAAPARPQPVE
UniProt P0A6P9: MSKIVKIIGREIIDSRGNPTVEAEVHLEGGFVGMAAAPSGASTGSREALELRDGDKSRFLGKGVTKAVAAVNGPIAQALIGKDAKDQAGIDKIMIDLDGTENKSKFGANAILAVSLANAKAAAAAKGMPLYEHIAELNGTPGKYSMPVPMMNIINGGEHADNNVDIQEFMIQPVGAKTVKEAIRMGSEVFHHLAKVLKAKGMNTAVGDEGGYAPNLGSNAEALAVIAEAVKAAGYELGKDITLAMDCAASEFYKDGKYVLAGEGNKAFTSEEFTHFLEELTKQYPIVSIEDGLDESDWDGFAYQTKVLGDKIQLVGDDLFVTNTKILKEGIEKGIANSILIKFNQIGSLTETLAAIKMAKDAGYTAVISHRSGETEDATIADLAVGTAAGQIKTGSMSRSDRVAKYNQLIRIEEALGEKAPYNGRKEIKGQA

What was measured:
RNase II–Flag (E. coli) [1] = target: T1, RNase II–Flag (E. coli) (UniProt P30850); experiment: co-IP; anti-Flag beads; 1 mg protein extract of cells with chromosomally encoded RNase II–Flag and RNaseE–HA (or RNaseE^(1–417)–HA, RNaseE^(1–659)–HA); overnight at 4°C in IP buffer (25 mM Tris pH 7.5, 150 mM NaCl, 1 mM DTT, 1 mM EDTA, 5% glycerol, 1% nonidet P-40); Western blot; also extracts of cells lacking Eno, PNPase, or PNPase and Eno
T1 sequence: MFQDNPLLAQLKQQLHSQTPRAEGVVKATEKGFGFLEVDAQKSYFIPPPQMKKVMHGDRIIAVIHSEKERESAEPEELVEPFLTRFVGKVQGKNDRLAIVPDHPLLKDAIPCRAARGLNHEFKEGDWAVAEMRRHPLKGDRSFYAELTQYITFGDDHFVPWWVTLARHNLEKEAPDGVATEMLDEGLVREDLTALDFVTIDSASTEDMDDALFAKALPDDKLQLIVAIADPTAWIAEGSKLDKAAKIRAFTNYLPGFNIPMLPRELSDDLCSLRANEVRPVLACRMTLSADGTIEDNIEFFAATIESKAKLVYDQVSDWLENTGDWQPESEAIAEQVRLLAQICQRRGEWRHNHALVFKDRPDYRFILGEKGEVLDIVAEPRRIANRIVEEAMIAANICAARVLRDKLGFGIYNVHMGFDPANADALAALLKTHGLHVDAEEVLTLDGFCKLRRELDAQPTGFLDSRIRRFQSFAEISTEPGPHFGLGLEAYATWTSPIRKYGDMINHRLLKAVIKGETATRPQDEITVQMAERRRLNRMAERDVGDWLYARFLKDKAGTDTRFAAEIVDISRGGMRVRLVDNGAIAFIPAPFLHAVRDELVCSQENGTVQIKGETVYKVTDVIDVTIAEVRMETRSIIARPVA

RNase II–Flag (E. coli) [2] = target: T1, RNase II–Flag (E. coli); experiment: co-IP; anti-Flag beads; protein extracts of cells with chromosomally encoded RNase II–Flag and RNaseE^(1–417) plus plasmid-encoded HA-tagged RNaseE^C fragments under Plac (100 μM IPTG for 30 or 50 min); Western blot
[3] = target: RNaseE^(762–1021)–HA (E. coli) (UniProt P21513); experiment: co-IP; anti-HA beads (protein A/G); protein extracts of cells with chromosomally encoded RNase II–Flag and RNaseE^(1–417) plus plasmid-encoded HA-tagged RNaseE^C fragments under Plac; Western blot with antibodies against the HA and Flag tags, PNPase and Eno
[4] = target: RNaseE^(820–1061)–HA (E. coli) (UniProt P21513); experiment: as above

“RNaseE^(1–659)–HA (from UniProt P21513 1-659) (domain or fragment)” was tested. Which binding (RNase II–Flag (E. coli) [1]) did it give?
The binding was “no binding”.

With “RNaseE^(1–417)–HA (from UniProt P21513 1-417) (domain or fragment)” as the molecule, how does the binding (RNase II–Flag (E. coli) [1]) read?
Its binding is “no binding”.

With “RNaseE^(762–1021)–HA (from UniProt P21513 762-1021) (domain or fragment)” as the molecule, how does the binding (RNase II–Flag (E. coli) [2]) read?
Its binding is “no binding”.

With “RNaseE^(820–1061)–HA (from UniProt P21513 820-1061) (domain or fragment)” as the molecule, how does the binding (RNase II–Flag (E. coli) [2]) read?
Its binding is “no binding”.

For “Eno (enolase) (from UniProt P0A6P9 1-432) (enzyme)”, which binding [3] is on record?
Its binding is “binds”.

What about the binding [4] of the same molecule?
Its binding is “binds”.

B1: PNPase (polynucleotide phosphorylase) (enzyme, UniProt P05055 1-711)
chain: MLNPIVRKFQYGQHTVTLETGMMARQATAAVMVSMDDTAVFVTVVGQKKAKPGQDFFPLTVNYQERTYAAGRIPGSFFRREGRPSEGETLIARLIDRPIRPLFPEGFVNEVQVIATVVSVNPQVNPDIVAMIGASAALSLSGIPFNGPIGAARVGYINDQYVLNPTQDELKESKLDLVVAGTEAAVLMVESEAQLLSEDQMLGAVVFGHEQQQVVIQNINELVKEAGKPRWDWQPEPVNEALNARVAALAEARLSDAYRITDKQERYAQVDVIKSETIATLLAEDETLDENELGEILHAIEKNVVRSRVLAGEPRIDGREKDMIRGLDVRTGVLPRTHGSALFTRGETQALVTATLGTARDAQVLDELMGERTDTFLFHYNFPPYSVGETGMVGSPKRREIGHGRLAKRGVLAVMPDMDKFPYTVRVVSEITESNGSSSMASVCGASLALMDAGVPIKAAVAGIAMGLVKEGDNYVVLSDILGDEDHLGDMDFKVAGSRDGISALQMDIKIEGITKEIMQVALNQAKGARLHILGVMEQAINAPRGDISEFAPRIHTIKINPDKIKDVIGKGGSVIRALTEETGTTIEIEDDGTVKIAATDGEKAKHAIRRIEEITAEIEVGRVYTGKVTRIVDFGAFVAIGGGKEGLVHISQIADKRVEKVTDYLQMGQEVPVKVLEVDRQGRIRLSIKEATEQSQPAAAPEAPAAEQGE
B1 was tested. Which binding [4] did it give?
The binding was “binds”.

B2: RNase II–Flag (enzyme, UniProt P30850 1-644)
chain: T1 sequence
Which results are given for B2?
binding [3]: no binding; binding [4]: no binding
